Reference: PubChem BioAssay AID1466 (National Center for Advancing Translational Sciences (NCATS), 2008)
The whole screen tested about 200,000 compounds, of which about 10 (0.005%) were called active. The inconclusive results got no clear call from the source; some entries with a clear call stand among them for comparison. Calls follow the shape of the dose curve; as a rule, active = well fitted inhibition curve with a large enough effect; inconclusive = small, poorly fitted or top-dose-only effect, or effect the other way, or another doubt; inactive = no such curve, though single readings can be large or run the other way. Potencies of inconclusive entries are left out as doubtful fits.

The molecules below were run against Lysosomal alpha-glucosidase (Homo sapiens) (UniProt P10253) (assay: qHTS Assay for Inhibitors of Human alpha-Glucosidase as a Potential Chaperone Treatment of Pompe Disease). Conditions: purified human GAA, 4-MU-alpha-glucoside fluorescence; activity change, negative = inhibition: at 76.9 µM (top of the series) unless noted.
How it was run: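 Enzyme (4 nM final) mixed with compound (up to 77 uM), then 4-MU-alpha-D-pyranoside (400 uM final) added; 20 min at room temperature, pH 5.0. Reaction stopped at pH 10, fluorescence read, AC50 derived by Hill fit.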
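For activity change, negative = inhibition in this document: plate controls were uninhibited enzyme wells for no effect and no-enzyme background for full effect.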
Potency is read from the fitted curve at half-maximal effect; tags tell the direction and shape of the fitted curve.

For `Cc1c2c(nc3c(C)cccc13)OC(C)C2` (centres undefined), which activity change, negative = inhibition is on record?
Its activity change, negative = inhibition is inconclusive: -16.5% [inhibitor].

How did the Potency turn out when `CCOC(=O)c1cnc2cc(-c3ccc(C(C)(C)C)cc3)nn2c1N` was run?
The Potency was inconclusive [inhibitor, partial curve, poor fit].

With `O=C(CC1C(=O)NCCN1C/C=C/c1ccccc1)NCCc1cccnc1` (centres undefined) as the molecule, how does the activity change, negative = inhibition read?
Its activity change, negative = inhibition is inconclusive: 15.3% [activator].

How did the Potency turn out when `Cc1ccc(O)c(N=Nc2ccc(S(=O)(=O)N3CCOCC3)cc2)c1` was run?
Its Potency is inconclusive [inhibitor, single point].

Which Potency does the source give for `CCCCN1Cc2c(nc3cc(-c4ccccc4)[nH]n3c2=O)C1=O` here?
The Potency was inconclusive [activator, partial curve].

Which Potency does the source give for `CCN(CC)c1cc(C)c(C#N)c2nc3ccccc3n12` here?
The Potency was inconclusive [activator, partial curve].

With `COc1cc(/C=C2\C(=O)NN(c3ccc(C)cc3)C2=O)cc([N+](=O)[O-])c1O` as the molecule, how does the Potency read?
The Potency was “inactive”.

For `O=S(=O)(c1ccc(OCC(O)CNCc2ccco2)c(Cl)c1)N1CCOCC1` (centres undefined), which Potency is on record?
Its Potency is inconclusive [inhibitor, partial curve].

With `O=C1CCCC/C1=C/NCc1ccc(F)cc1` as the molecule, how does the activity change, negative = inhibition read?
Its activity change, negative = inhibition is inconclusive: 6.86% [activator].

Which Potency does the source give for `O=C(Nc1ccc(CN2CCCCC2)cc1)c1cc(Br)ccc1Cl` here?
The Potency was inconclusive [inhibitor, partial curve, poor fit].

For `COc1ccccc1C1=NC(c2ccc(C)cc2)N=C1C` (centres undefined), which Potency is on record?
The Potency was inconclusive [inhibitor, partial curve, poor fit].

`CN(C)c1ccc(/C(=N\O)C(F)(F)F)cc1` was tested. Which Potency did it give?
The Potency was inconclusive [inhibitor, full curve, poor fit].

For `CCn1c(=O)cc(SCC(=O)Nc2cccnc2)c2ccccc21`, which Potency is on record?
Its Potency is inconclusive [inhibitor, partial curve].

Which Potency does the source give for `O=C(CNC(=O)c1ccco1)OCc1ccc(C(=O)Oc2ccccc2)cc1` here?
The Potency was inconclusive [inhibitor, full curve].

How did the activity change, negative = inhibition turn out when `COc1ccc(S(=O)(=O)N(C)c2ccc(C(=O)N3CCCC3)cc2)cc1` was run?
The activity change, negative = inhibition was inconclusive: 12.3% [activator].

How did the Potency turn out when `Cc1ccc2c3c(cccc13)-c1ccccc1C2=O` was run?
Its Potency is “inactive”.

`CCOc1cc(/C=N/n2cnnc2)c(Br)cc1O` was tested. Which Potency did it give?
The Potency was inconclusive [inhibitor, partial curve, poor fit].

With `COc1ccc(S(N)(=O)=O)cc1C(=O)N1CCCC1` as the molecule, how does the Potency read?
Its Potency is inconclusive [inhibitor, full curve, poor fit].

`O=C(Nc1cccc(S(=O)(=O)Nc2ccc(Cl)cc2)c1)c1cc2c(s1)CCCC2` was tested. Which activity change, negative = inhibition did it give?
The activity change, negative = inhibition was inconclusive: 23.2% [activator].

With `COc1cc(CNc2ccc(N3CCN(C(C)=O)CC3)cc2)ccc1OCc1ccc(F)cc1` as the molecule, how does the Potency read?
Its Potency is “inactive”.

How did the Potency turn out when `COc1cc(/C=C2/CCC/C(=C\c3cc(O)c(OC)c(Cl)c3)C2=O)cc(Cl)c1O` was run?
Its Potency is inconclusive [inhibitor, partial curve].

For `CC(NC(=O)Cn1ccsc1=N)C12CC3CC(CC(C3)C1)C2` (centres undefined), which Potency is on record?
Its Potency is inconclusive [inhibitor, single point].

How did the Potency turn out when `CC(C)COC(=O)CCNc1n[nH]c(=O)[nH]c1=O` was run?
Its Potency is inconclusive [inhibitor, single point].

With `COC(=O)N/N=C/c1ccc([N+](=O)[O-])s1` as the molecule, how does the Potency read?
Its Potency is inconclusive [inhibitor, partial curve, poor fit].

For `COc1cccc(C2=Nn3c(nnc3-c3ccccc3O)SC2)c1`, which activity change, negative = inhibition is on record?
The activity change, negative = inhibition was inconclusive: -16.3% [inhibitor].

For `O=c1[nH]c(NCCCO)nc2c1C1(CCCC1)Cc1ccccc1-2`, which Potency is on record?
The Potency was inconclusive [activator, single point].

How did the activity change, negative = inhibition turn out when `CN1C(=O)c2ccc(C(=O)Nc3nccs3)cc2C1=O` was run?
The activity change, negative = inhibition was inconclusive: 18.9% [activator].

How did the Potency turn out when `O=C(NC1CCCCC1)C(c1ccncc1)N(Cc1ccc2c(c1)OCO2)C(=O)c1cnsn1` (centres undefined) was run?
The Potency was “inactive”.

For `CCOCCCNC(=S)NCCCNc1nc2c(C)c(C)ccc2cc1C#N`, which activity change, negative = inhibition is on record?
The activity change, negative = inhibition was inconclusive: 19.4% [activator].

With `Cc1cc(C(=O)CSc2nncs2)c(C)n1Cc1ccco1` as the molecule, how does the activity change, negative = inhibition read?
Its activity change, negative = inhibition is inconclusive: -17.3% [inhibitor].

Which activity change, negative = inhibition does the source give for `O=S(=O)(NN=C1CCCCC1)c1ccccc1` here?
Its activity change, negative = inhibition is inconclusive: 6.11% [activator].

For `CN(C)C(/C=C/Nc1ccc(O)cc1)=C(C#N)C#N`, which Potency is on record?
Its Potency is “inactive”.

Which Potency does the source give for `Cn1ncc([N+](=O)[O-])c1C(=O)N/N=C/c1cccc([N+](=O)[O-])c1` here?
Its Potency is “inactive”.

Which Potency does the source give for `O=C(NCCN1CCN(Cc2ccc([N+](=O)[O-])cc2)CC1)C(=O)Nc1ccccc1` here?
Its Potency is inconclusive [inhibitor, single point].

How did the Potency turn out when `CCN1CCN(CCNC(=O)CSCc2nc(-c3ccc(OC)c(OC)c3)oc2C)CC1` was run?
The Potency was inconclusive [inhibitor, single point].

With `COc1ccc(N=C2C(=O)Nc3c(C)cccc32)cc1` as the molecule, how does the Potency read?
Its Potency is inconclusive [inhibitor, partial curve].

How did the Potency turn out when `Nc1ccc(O)cc1C(=O)OCC(=O)C12CC3CC(CC(C3)C1)C2` was run?
The Potency was inconclusive [inhibitor, partial curve].

`c1ccc(Nc2nc3ccccc3o2)cc1` was tested. Which Potency did it give?
The Potency was inconclusive [inhibitor, single point].

For `CCCCN(C(=O)c1ccc(S(=O)(=O)N(C)C)cc1)c1nc2ccccc2s1`, which Potency is on record?
The Potency was inconclusive [inhibitor, single point].

For `COc1cc2c(cc1O)C(Cc1ccc(O)cc1)NCC2` (centres undefined), which Potency is on record?
Its Potency is “inactive”.

How did the Potency turn out when `CN(C)/C=N/c1nc(-c2ccc3c(c2)OCO3)cs1` was run?
The Potency was inconclusive [inhibitor, single point].

`Cc1cc(C)c([N+](=O)[O-])cc1NC(=O)CCS(=O)(=O)c1ccccc1` was tested. Which Potency did it give?
The Potency was inconclusive [inhibitor, partial curve, poor fit].

With `COC(=O)c1c(C)nc2nonc2c1N` as the molecule, how does the activity change, negative = inhibition read?
Its activity change, negative = inhibition is inconclusive: 21% [activator].

Which Potency does the source give for `O=C(O)CSc1cnc2ccccc2n1` here?
Its Potency is inconclusive [inhibitor, single point].

`Cc1cccc2cc(C#N)c(NCCNS(=O)(=O)c3ccc4c(c3)OCCO4)nc12` was tested. Which Potency did it give?
Its Potency is inconclusive [inhibitor, single point].

For `O=C(c1cc(Cl)ccc1[N+](=O)[O-])N1CCc2ccccc2C1`, which Potency is on record?
The Potency was inconclusive [inhibitor, single point].

How did the Potency turn out when `c1ccc(-c2nnc(NC3=NCCC3)o2)cc1` was run?
The Potency was “inactive”.

For `Cc1ccc(CNc2ccc3c(c2)OCO3)cc1`, which Potency is on record?
Its Potency is “inactive”.

`Cc1ccc(-c2csc3ncnc(-n4cnc5ccccc54)c23)cc1` was tested. Which Potency did it give?
The Potency was inconclusive [inhibitor, full curve].

`CCN(C(=O)CSc1ncnc2sc(C)c(C)c12)C1CCS(=O)(=O)C1` (centres undefined) was tested. Which activity change, negative = inhibition did it give?
Its activity change, negative = inhibition is inconclusive: 15% [activator].

How did the Potency turn out when `O=C1c2ccccc2C(=O)N1OCCOCCOCCON1C(=O)c2ccccc2C1=O` was run?
The Potency was inconclusive [inhibitor, single point].

Which Potency does the source give for `CC12CCC(C(N)=O)(c3nc4ccccc4nc31)C2(C)C` (centres undefined) here?
The Potency was inconclusive [inhibitor, single point].

For `Cc1cc(C(=O)CN2C(=O)NC3(CCCc4ccccc43)C2=O)c(C)n1Cc1ccco1` (centres undefined), which Potency is on record?
The Potency was inconclusive [inhibitor, partial curve, poor fit].

How did the Potency turn out when `COc1ccc(NS(=O)(=O)c2ccc(NS(C)(=O)=O)cc2)cc1` was run?
Its Potency is inconclusive [inhibitor, single point].

Which Potency does the source give for `Cc1ccc(CNC(=O)CCC2CCCN(Cc3ccc4cccc(F)c4n3)C2)o1` (centres undefined) here?
Its Potency is inconclusive [inhibitor, single point].

With `CCOC(=O)c1ccc(NC(=O)CSc2nnc(CNC(=O)c3ccccc3F)o2)cc1` as the molecule, how does the Potency read?
Its Potency is inconclusive [inhibitor, single point].

With `COc1ccc(NC(=O)CCCSc2nc(-c3ccco3)cc(C(F)(F)F)n2)cc1OC` as the molecule, how does the Potency read?
The Potency was inconclusive [inhibitor, single point].

With `CCNC(=S)Nc1cccc(F)c1C` as the molecule, how does the Potency read?
Its Potency is inconclusive [activator, full curve, poor fit].

Which Potency does the source give for `COc1nccnc1NS(=O)(=O)c1ccc(N/C=C2\CCCCC2=O)cc1` here?
Its Potency is inconclusive [inhibitor, single point].

With `CCn1c(C)nc2cc(C(=O)OC)ccc21` as the molecule, how does the activity change, negative = inhibition read?
Its activity change, negative = inhibition is inconclusive: 17.3% [activator].

With `COC(=O)c1[nH]c2ccc(F)cc2c1NS(=O)(=O)c1ccc(F)c(C)c1` as the molecule, how does the Potency read?
Its Potency is “inactive”.

For `O=C(CSc1ccc(-c2ccco2)nn1)c1ccccc1`, which Potency is on record?
The Potency was inconclusive [inhibitor, full curve, poor fit].

With `O=C(COc1ccc2ccccc2c1)Nc1cccc2c1C(=O)NC2=O` as the molecule, how does the Potency read?
Its Potency is inconclusive [activator, full curve, poor fit].

How did the Potency turn out when `CN1CCN(c2ccc(Cl)cc2NC(=O)/C=C/c2cccc(F)c2)CC1` was run?
The Potency was inconclusive [inhibitor, single point].

Which Potency does the source give for `O=C(NNC(=O)c1cc2cc3ccccc3nc2s1)c1cccc(Cl)c1` here?
Its Potency is “inactive”.

Which Potency does the source give for `Cc1ccsc1/C=N/n1c(-c2cccnc2)n[nH]c1=S` here?
The Potency was inconclusive [inhibitor, single point].

For `COc1ccc(NC(=O)C2CC(=O)N=C(N)S2)cc1` (centres undefined), which activity change, negative = inhibition is on record?
Its activity change, negative = inhibition is inconclusive: 15.8% [activator].

With `C=CCN(C(=O)Nc1ccc2oc(C)nc2c1)c1ccccc1` as the molecule, how does the Potency read?
The Potency was inconclusive [inhibitor, single point].

For `CN(CCC#N)C(=O)COC(=O)c1ccc(CNS(=O)(=O)c2ccc(F)c(Cl)c2)cc1`, which activity change, negative = inhibition is on record?
Its activity change, negative = inhibition is inconclusive: -16% [inhibitor].
